Data as given in the RNAGym collection of RNA variant scans (doi:10.7554/elife.90254).
The source gives no read counts; variants with many changes may rest on few reads.

B1: OR4K15 (parent)
chain: GUUAACGGUCAUAGGCCAUGGAAACUAGGAGCACCAUUUCGCUGCCAGUGAAGAAAUGAACAAAGAAAAUCUGGGCCAGGCAGGCAUCAAAAGAAAUAGUCUUGCGCUCAACCAGAAAGUCUGUAAUCAUUUUAAGGGUA

Variants of: B1
Assay: self-cleavage, relative activity (ratio to wild type); higher = more cleavage; in vitro, sequencing; the parent is a self-cleaving ribozyme
Variant A86U A92C A111G has a self-cleavage of 0.01. Work on A91G C105U U122C U127A yielded a self-cleavage of 0.02. With A86G A90G U122C the self-cleavage was 0.9. G79C A116G U120G showed a self-cleavage of 0.01. U87C A94U U132C showed a self-cleavage of 1.29. Work on A89G A98G G138A yielded a self-cleavage of 0.61. Work on A82U A94G A116G A134G yielded a self-cleavage of 0.04. With A82G G104A A110U A129G the self-cleavage was 0. Work on A86G U102C A126G yielded a self-cleavage of 1.7. Variant A89G A110G G119A U131C has a self-cleavage of 0.07. A92G U97C A98G A118G A135G showed a self-cleavage of 2.15. Variant A92G A116C A118G has a self-cleavage of 0.13. With A94G A96G U130A the self-cleavage was 0.19. In the case of U102C G104U A125G U130G, the self-cleavage is reported as 0.01. Variant A91G U122A U139A has a self-cleavage of 0.67. For A82G A96U G138U, the self-cleavage was 0.5. A82G U103C A118G gave a self-cleavage of 0.79. Work on A95G A116G A125G yielded a self-cleavage of 0.69. For A86G A90G U131C, the self-cleavage was 0.82. Work on G75C U100C A129G yielded a self-cleavage of 0.08. With A78G A95G A140G the self-cleavage was 0.22. Variant A92G A117G A135G has a self-cleavage of 1.18. With A78G A95G U127C the self-cleavage was 0.27. In the case of A86G A91G A111C, the self-cleavage is reported as 0.02. In the case of U103A C107U U132C, the self-cleavage is reported as 0.01. Variant A94G G106A U108C has a self-cleavage of 0.01. In the case of U102C U122A A129G, the self-cleavage is reported as 1.47. A86G G99A U103C showed a self-cleavage of 0.04. Variant G84U U87A A90G A125U G138A has a self-cleavage of 0.4. With G84A A91G A111G A117G U124C the self-cleavage was 0. In the case of A86G A96G A98G A110G G137A, the self-cleavage is reported as 0.04. U102C A117G U130C showed a self-cleavage of 2.46. U103C A110G U131C U139A gave a self-cleavage of 0.11. Variant A78U A110G A135U has a self-cleavage of 0.08. With A78U A95U U100A the self-cleavage was 0.04. With G84A U97G U108A A110U the self-cleavage was 0.01. A82G A117G A129U gave a self-cleavage of 0.14. A91G A116G U131C gave a self-cleavage of 0.27. For G74U A82G A90G, the self-cleavage was 0.16. Variant A78G A126U U132C has a self-cleavage of 0.07. Work on U97C A117G U132C yielded a self-cleavage of 0.79. U87A A96G G136U gave a self-cleavage of 1.88. Work on G79C U102C A140G yielded a self-cleavage of 0.05. With A78U A89U U131C the self-cleavage was 0.08. A78U A89G A91C A110G gave a self-cleavage of 0.03. For C77U A91G U102C U130C, the self-cleavage was 2.3. With A86G A110G U131C the self-cleavage was 0.04. Variant G83A A92U G106U A111U has a self-cleavage of 0.01. Variant A92U U108C A129G has a self-cleavage of 0.01. For C85G U87C A110G, the self-cleavage was 0.07. For A96G U120C U139A, the self-cleavage was 0.48. Work on U100C U108C U122C yielded a self-cleavage of 0. Variant A90U A96G U102C has a self-cleavage of 2.75. Work on A92C A111U A116G yielded a self-cleavage of 0.04. Variant A89U U108A U122G has a self-cleavage of 0.01. A78U U124A A126G showed a self-cleavage of 0.3. With U100A U120G A126G the self-cleavage was 0.66. In the case of G83U U102C A111G A126G, the self-cleavage is reported as 0. In the case of A82U A90G A94G, the self-cleavage is reported as 0.28. Variant A92G A94G G99A has a self-cleavage of 0.86. Work on A86G A95G A96G yielded a self-cleavage of 1.24. Variant A92G A95G A114U has a self-cleavage of 0.08. A89G U97C U124A showed a self-cleavage of 0.8. For U87C A94G G106A C112U, the self-cleavage was 0. With U97A A116G U133C the self-cleavage was 0.81. In the case of A90G A96G U97C A114G, the self-cleavage is reported as 0.05. In the case of A91G A110G U131C U132C, the self-cleavage is reported as 0.1. Work on U87C A89U A118U yielded a self-cleavage of 0.27. With A95G A110G A116G U122C the self-cleavage was 0.05. A94U G106U U139C showed a self-cleavage of 0.01. In the case of A98U U102C A111G A118G, the self-cleavage is reported as 0.01. Variant A95G A126G U130C has a self-cleavage of 1.44. In the case of A82G A94G A96G U102A U130C, the self-cleavage is reported as 0.05. For A95U A96U U108C, the self-cleavage was 0.01. For A78U A86G A91G, the self-cleavage was 0.02. With A96U A111U U127C the self-cleavage was 0.04. For A78U A82G A95G A96G U100C A116G, the self-cleavage was 0.21. Variant A78U A95G U127A has a self-cleavage of 0.9. Work on A78G U97C A126G yielded a self-cleavage of 0.12. Work on G80A A90G A92G U102C A111G yielded a self-cleavage of 0. Work on C81G A86U U130C U132C U139C yielded a self-cleavage of 0.24. Variant A94G A116G A126G has a self-cleavage of 0.34. In the case of U103C A111G A117G, the self-cleavage is reported as 0. For A91G A116G U122C, the self-cleavage was 0.24. For G75A A82U A110G U132C, the self-cleavage was 0. With A90G U97A U132C the self-cleavage was 0.97. For U97C A114U A140U, the self-cleavage was 0.01. In the case of A86G A116C U131C, the self-cleavage is reported as 0.1. A82U A89U A90G gave a self-cleavage of 0.07. With A78G U102C A140G the self-cleavage was 0.26. In the case of A94U C105U U131C, the self-cleavage is reported as 0.12. A82U A117G A126U showed a self-cleavage of 0.13. Work on A94U U100C U108C U127C yielded a self-cleavage of 0. With A91U U100C U122C the self-cleavage was 2.35. With A92U U100C A129C the self-cleavage was 1.94. With A96U A117G G138A the self-cleavage was 0.78. Work on A78G C105G A118G U120C U122C yielded a self-cleavage of 0.01. Work on A91G U100C U122C U124C yielded a self-cleavage of 2.61. In the case of A95G G106A A116G A117U, the self-cleavage is reported as 0. Work on A92G U102C G106A C128U yielded a self-cleavage of 0.01. In the case of A98U U102G A111G, the self-cleavage is reported as 0.01. Work on A86G A90G U127C yielded a self-cleavage of 0.4. A82G A94G A125G gave a self-cleavage of 0.16. For A96G A114U A118G, the self-cleavage was 0.02. G75A A86G A95U gave a self-cleavage of 0.13. Variant A82G A95G G136A has a self-cleavage of 0.99. In the case of A78U A95G A125G, the self-cleavage is reported as 0.12. Variant U103A C105A U108C U122C has a self-cleavage of 0. In the case of U97C A118U U120C, the self-cleavage is reported as 0.18. In the case of A90G A96G A111G U131C, the self-cleavage is reported as 0. A78U A82U A89G gave a self-cleavage of 0.08. A89G C109U A118U showed a self-cleavage of 0.1. A82U A95U A135G gave a self-cleavage of 0.24. Variant A82G A118C U132C has a self-cleavage of 0.33. G99A A114G U130C gave a self-cleavage of 0.01. U87A A91G U120C gave a self-cleavage of 0.22. G75A A86G U103A showed a self-cleavage of 0.09. In the case of A82U U87C A98G U108A A114G U130G, the self-cleavage is reported as 0. With A82C A90G U108C the self-cleavage was 0.02. Variant A78U A117G U131C has a self-cleavage of 0.17. For A78G A90G A118G, the self-cleavage was 0.03. A92G A118G U122C gave a self-cleavage of 0.98. Work on A82U A117G A118U A126U yielded a self-cleavage of 0.1. With A82U A96G U102A the self-cleavage was 0.65. A94G A117G U124A gave a self-cleavage of 1.72. With A91G A92G A96U U103C U122C the self-cleavage was 0.2. With A91G U103C A110G U132C the self-cleavage was 0.04. A78U U97A U122C showed a self-cleavage of 0.29. In the case of A96G U102C A129G, the self-cleavage is reported as 1.86. A98G U102A U103A gave a self-cleavage of 0.02. For A82G A86G U100C U103C A129G, the self-cleavage was 1.38. For A78G U87C A117G G136U, the self-cleavage was 0.11. Variant A95U A116U U131C has a self-cleavage of 0.17. C101U U108C U124C U132A showed a self-cleavage of 0. Work on A94G A111G A114U yielded a self-cleavage of 0.02. Variant A96G A117G A118G A135G has a self-cleavage of 1.57. Variant G79A U87A A129G has a self-cleavage of 0.04. In the case of A94G A110G U133C, the self-cleavage is reported as 0. For A91G U108C A118U, the self-cleavage was 0.01. With A89G U100C A118G the self-cleavage was 1.57. In the case of A89G A92G U130C, the self-cleavage is reported as 0.59. For A94U U102A A126U, the self-cleavage was 0.8. Variant U97C A126G U127C has a self-cleavage of 0.18. Variant A89U A118G U130C U132C has a self-cleavage of 0.48. Work on A91G A92G U131C yielded a self-cleavage of 0.08. Variant U87A A92G A117G has a self-cleavage of 2.22. A98G U108C U133A gave a self-cleavage of 0.01. With A95G U108C A116G U131C the self-cleavage was 0. With U87C U103C U132G the self-cleavage was 0.32. A96G U108C U120C G137A U139C gave a self-cleavage of 0. Variant U87C A96G G104A has a self-cleavage of 0.03. A78G A91G U130C U133C showed a self-cleavage of 0.09. A94G C113U A116G A126G U139C showed a self-cleavage of 0.02. In the case of U103C A110U A111G U132C, the self-cleavage is reported as 0.01. In the case of C88U A125G U132C, the self-cleavage is reported as 0.37. Variant A78G A92G A94G A129G has a self-cleavage of 0.11. For A86U A90G U131C, the self-cleavage was 1.02. With U87C A111G A126G the self-cleavage was 0.01. Work on G80A U103A U122C yielded a self-cleavage of 0.02. A89G A96G A126G gave a self-cleavage of 0.64. In the case of A78G A82U A86G U122C G123A, the self-cleavage is reported as 0.07. Variant A86U A117G U122C has a self-cleavage of 3. With A91U U100C A116G the self-cleavage was 2.69. With A82G U120C A129G U131C the self-cleavage was 0.14. Variant U87C U102C A114U has a self-cleavage of 0.21. A90U A114U U131C U132C gave a self-cleavage of 0.03. U87C U122C A140G showed a self-cleavage of 0.88.
